PubChem BioAssay AID624202 (National Center for Advancing Translational Sciences (NCATS), 2012)
Out of some 380,000 compounds screened, about 4,000 (1.1%) were called active. Inconclusive results, whose numbers are uncertain, are shown with a selection of clear calls. Calls come from the whole dose curve; as a rule, active = well fitted activation curve with a large enough effect; inconclusive = small, poorly fitted or top-dose-only effect; inactive = no such curve, though single readings can be large or run the other way. A potency beside an inconclusive call is a rough fit, not a confirmed value.

assay: qHTS Assay to Identify Small Molecule Activators of BRCA1 Expression; details: MCF7-BRCA1-FFLuc reporter, luminescence, 48 h; activation: at 46.1 µM (top of the series), scaled: vehicle 0%, 10 µM genistein 100% unless noted; note: nearly all actives have a fitted effect of over 80% in size
Procedure, shortened: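 MCF7-BRCA1-FFLuc cells, 2000/well in phenol-red-free MEM, attached 2 h then treated 48 h at 37 C. Luciferase luminescence read 15 min after reagent; normalized to genistein maximum activation (10microM) and DMSO, concentration-response fitted.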
Potency is the fitted concentration of half-maximal effect; tags give direction and shape of the fitted curve.

Row | SMILES | Potency
1 | COc1ccc2cc3c(N)c(C(=O)N4CCCC4)sc3nc2c1 | inconclusive: 1.58 µM [activator, full curve, poor fit]
2 | CN(C)c1ccc(-c2nnc(-c3cccnc3)o2)cc1 | inconclusive: 0.631 µM [activator, full curve, poor fit]
3 | COc1ccc(Nc2ncnc3c2c(C)c(C)n3CCO)cc1 | inconclusive: 1.26 µM [activator, full curve, poor fit]
4 | Nc1nc(CSC(=S)N2CCOCC2)nc(Nc2ccccc2)n1 | inconclusive: 20 µM [activator, partial curve, poor fit]
5 | COc1ccc(-c2csc(Nc3cccc(C)n3)n2)cc1 | inconclusive: 3.16 µM [activator, partial curve, poor fit]
6 | O=S(=O)(c1ccc(-c2nc3ccccc3s2)cc1)N1CCCC1 | active: 2.51 µM
7 | CSc1ccc(/C=N/NC(=O)c2ccc(O)cc2)cc1 | inconclusive: 12.6 µM [activator, partial curve, poor fit]
8 | O=C1CCCC/C1=C/Nc1ccc(C(=O)O)cc1 | inconclusive: 7.94 µM [activator, partial curve, poor fit]
9 | CCn1c(C)nc2cc(C(=O)NNC(=S)Nc3ccccc3)ccc21 | inconclusive: 1.58 µM [activator, full curve, poor fit]
10 | CCN(C(=O)COC(=O)c1cccnc1Nc1ccccc1F)C1CCS(=O)(=O)C1 (configuration not stated) | inconclusive: 12.6 µM [activator, single point]
11 | N#C/C(=N\Nc1ccc(Cl)cc1)C(=O)c1ccccc1 | inactive
12 | Cc1cc(N2CCOCC2)n2ncc(-c3ccccc3Cl)c2n1 | inconclusive: 2 µM [activator, full curve, poor fit]
13 | CCCCc1nc(NCCN2CCOCC2)c(C#N)c2c1COC(C)(C)C2 | inactive
14 | CCN(CC)S(=O)(=O)c1ccc(C(=O)NCc2ccc3c(c2)OCO3)cc1 | inactive
15 | CCN(CC)S(=O)(=O)c1cccc(-c2nnc(SCC(=O)NC)n2N)c1 | inactive
16 | O=C(CCSc1ccc(Cl)cc1)N1CCCCCC1 | active: 12.6 µM
17 | COc1ccc(NC(=O)Nc2nnc(C(C)C)s2)cc1 | active: 10 µM
18 | COc1ccc(Cl)cc1NC(=O)C1COc2ccccc2O1 (configuration not stated) | inactive
19 | CC(=O)c1cccc(NC(=O)N2CCCC2C(=O)Nc2ccc3c(c2)OCO3)c1 (configuration not stated) | inactive
20 | NS(=O)(=O)c1c(Sc2ccccc2C(=O)O)ccc2ccccc12 | inconclusive: 35.5 µM [activator, single point]
21 | O=C(Cn1cnc2ccccc2c1=O)c1ccc(OC(F)F)cc1 | inconclusive: 14.1 µM [activator, partial curve, poor fit]
22 | CCC(=O)Nc1ccc2oc(-c3cccnc3)nc2c1 | active: 10 µM
23 | COc1ccc(-c2ccc(-c3nnn(CC(C)=O)n3)cc2)cc1 | inconclusive: 1.26 µM [activator, full curve, poor fit]
24 | CC(=O)NCCCNc1ccc([N+](=O)[O-])cc1 | inconclusive: 35.5 µM [activator, single point]

Row | SMILES | Potency
25 | CSC1=N/C(=C\c2c(F)cccc2Cl)C(=O)S1 | inconclusive: 31.6 µM [activator, single point]
26 | COc1ccc(-c2cc(C(=O)NC(C(=O)O)C(C)C)c(C)o2)cc1OC (configuration not stated) | inconclusive: 17.8 µM [activator, single point]
27 | O=C(Cc1ccc(O)cc1)NC1CCCCCC1 | active: 3.55 µM
28 | CC(C)Cc1ccc(-c2cc3nc(NCC4CC4)ccn3n2)cc1 | inconclusive: 1.12 µM [activator, full curve, poor fit]
29 | Cc1cc(NC(=O)c2ccccc2)ncc1NC(=O)c1ccco1 | inconclusive: 1.58 µM [activator, full curve, poor fit]
30 | CN(C)c1ccc(-c2nc(-c3ccco3)no2)cc1[N+](=O)[O-] | inconclusive: 31.6 µM [activator, single point]
31 | COc1ccc(NC(=O)CN2CCCCC2)c([N+](=O)[O-])c1 | active: 10 µM
32 | Cc1cc(NC(=S)Nc2ccc(C)c(Cl)c2)n[nH]1 | inconclusive: 2 µM [activator, full curve, poor fit]
33 | COc1ccc(-c2cc(=NC(CC(C)C)C(=O)O)c3cc(C)ccc3o2)cc1 (configuration not stated) | inconclusive: 1.26 µM [activator, full curve, poor fit]
34 | CN(C(=O)c1ccco1)c1nc(-c2ccc(Cl)cc2)cs1 | active: 10 µM
35 | O=C(Nc1ccccc1)c1nccn1Cc1ccc(F)cc1 | inconclusive: 14.1 µM [activator, partial curve, poor fit]
36 | CN(C)c1ccc(C=NNc2ccccn2)c(Cl)c1 | inconclusive: 2.82 µM [activator, full curve, poor fit]
37 | COc1ccc(N2CCN(Cc3cccn3-c3nnc(N4CCN(C5CCCCC5)CC4)s3)CC2)cc1 | inactive
38 | Cc1cccnc1NC(=O)NC(=O)c1ccc(C(C)(C)C)s1 | active: 6.31 µM
39 | COc1ccc(O)c(C(=O)CC(=O)c2ccncc2)c1 | active: 5.62 µM
40 | Cc1ccc2nc(-c3cccc(NC(=O)c4ccc(Br)o4)c3)oc2c1 | inconclusive: 35.5 µM [activator, single point]
41 | COc1ccc(-c2cc3nc(-c4ccccc4)cc(N4CCN(C(=O)c5ccoc5)CC4)n3n2)cc1 | inactive
42 | COc1cccc(-c2cc(C(=O)Nc3cc(OC)c(OC)c(OC)c3)no2)c1 | inactive
43 | c1ccc(Cn2cc(CSc3ccccc3)nn2)cc1 | inconclusive: 35.5 µM [activator, single point]
44 | O=C(c1ccc2oc(CCc3ccccc3)nc2c1)N1CCC(O)CC1 | inconclusive: 1.26 µM [activator, partial curve, poor fit]
45 | Cc1ccc(CNC(=O)Nc2cccs2)cc1 | inconclusive: 11.2 µM [activator, partial curve, poor fit]
46 | C/C(=N\NC(=O)c1ccccc1)c1ccccc1Br | active: 11.2 µM
47 | c1ccn2cc(CSc3nnc4ccccn34)nc2c1 | inconclusive: 1.78 µM [activator, full curve, poor fit]
